Out of some 310,000 compounds screened, about 14,000 (4.5%) showed an effect of 50% or more. The effect is printed as a negative number. The list shows a part of the results.
target: human ether-à-go-go-related gene (hERG) potassium channel (human, UniProt Q12809); test: primary screen, population patch clamp on CHO cells stably expressing hERG
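Further: peak tail current of the secondary pulse compared with the same well before compound.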

human ether-à-go-go-related gene (hERG) potassium channel, sequence (Q12809 whole entry, looked up): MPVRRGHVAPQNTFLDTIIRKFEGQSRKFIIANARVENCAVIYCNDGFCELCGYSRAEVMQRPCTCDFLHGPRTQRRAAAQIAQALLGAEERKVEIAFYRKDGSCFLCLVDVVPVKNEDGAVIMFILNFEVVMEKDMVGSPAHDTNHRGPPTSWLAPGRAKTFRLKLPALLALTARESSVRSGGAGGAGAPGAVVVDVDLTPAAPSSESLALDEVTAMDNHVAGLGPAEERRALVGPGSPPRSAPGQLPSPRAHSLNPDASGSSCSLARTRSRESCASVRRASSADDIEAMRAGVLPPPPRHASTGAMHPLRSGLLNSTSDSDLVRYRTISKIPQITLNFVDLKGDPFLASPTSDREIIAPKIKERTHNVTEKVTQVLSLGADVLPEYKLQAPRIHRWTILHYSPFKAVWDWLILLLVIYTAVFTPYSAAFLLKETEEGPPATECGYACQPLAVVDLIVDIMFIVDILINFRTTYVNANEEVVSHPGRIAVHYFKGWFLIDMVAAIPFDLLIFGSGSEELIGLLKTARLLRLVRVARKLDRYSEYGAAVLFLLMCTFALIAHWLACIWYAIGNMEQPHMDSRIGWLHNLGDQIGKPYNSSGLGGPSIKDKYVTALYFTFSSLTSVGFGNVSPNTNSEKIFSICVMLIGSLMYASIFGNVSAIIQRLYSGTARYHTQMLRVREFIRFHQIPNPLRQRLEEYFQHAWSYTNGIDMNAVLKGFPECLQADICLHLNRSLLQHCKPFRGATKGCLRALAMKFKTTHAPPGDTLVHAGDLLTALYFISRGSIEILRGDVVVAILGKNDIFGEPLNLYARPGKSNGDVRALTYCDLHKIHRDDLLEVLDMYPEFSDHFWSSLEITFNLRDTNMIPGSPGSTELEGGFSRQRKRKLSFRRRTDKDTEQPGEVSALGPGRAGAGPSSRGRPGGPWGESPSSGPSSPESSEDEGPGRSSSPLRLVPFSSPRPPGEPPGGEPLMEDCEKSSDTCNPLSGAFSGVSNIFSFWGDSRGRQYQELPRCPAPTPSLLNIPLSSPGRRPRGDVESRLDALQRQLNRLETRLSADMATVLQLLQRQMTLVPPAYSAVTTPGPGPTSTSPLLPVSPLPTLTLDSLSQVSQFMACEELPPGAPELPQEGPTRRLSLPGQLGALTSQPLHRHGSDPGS

SMILES	hERG current change (%, negative = inhibition) at 10uM [%]
Cc1ccc(NC(=O)CNC(c2ccccc2)c2ccccc2)c(F)c1	6.43
Cc1ccc(S(=O)(=O)N(CC(=O)NCCSCc2ccco2)c2cc(C)ccc2C)cc1	-9.25
COc1ccccc1Nc1ncccc1C(=O)O	9.41
COc1ccc(NC(=O)CSCC(=O)N2CCN(C(=O)c3ccco3)CC2)cc1	-55.1
COc1ccc(Nc2cc(C)nc(NCc3ccccc3)n2)cc1	-38
COc1ccc(-c2noc(CCC(=O)NCCCN3CCN(c4ccccc4F)CC3)n2)cc1	-61
CCN(C(=O)CN1CC=C(c2ccccc2)CC1)c1c(N)n(Cc2ccccc2)c(=O)[nH]c1=O	14.1
COc1ccc(OC)c(NC(=O)CCCc2ccccc2)c1	6.1
O=C(CSc1nc2c(c(=O)n1-c1ccc(Cl)cc1)SCC2)NCc1ccco1	-19.4
CC1=NN(C(C#N)c2ccccc2C)C(C)(C)C1 (stereo not drawn)	6.62
CN1CCN(C(=O)c2ccc3c(c2)OCCO3)CC1.Cl	-3.6
Cc1noc(NS(=O)(=O)c2ccc(NC(=O)Nc3ccc(Cl)c(Cl)c3)cc2)c1C	63.2
COc1ccc(Cl)cc1NC(=O)CN1CCc2ccccc21	-6.19
Cc1n[nH]c(C)c1SCC(=O)Nc1ccc(F)cc1	14.8
Cc1nc(-c2cc(C#N)c(=O)[nH]c2C)cs1	19.9
Cc1nn(C)c(NC(=O)c2ccc([N+](=O)[O-])cc2)c1Cl	-1.85
CCc1ccccc1Nc1nc(N)nc(COC(=O)CCC(=O)c2ccc(F)cc2)n1	-34.4
O=C(CCN1C(=O)C2C3C=CC(C3)C2C1=O)NCC1CCCO1 (stereo not drawn)	-4.54
O=c1c2cnn(-c3ccc(F)cc3)c2ncn1Cc1ccccc1	2.59
Cc1nc2nc3c(c(=O)n2[nH]1)CCC3	-2.24
C#CCOCCOCCOCCNc1nc(N2CCOCC2)nc(N2CCN(C(=O)[C@H](Cc3cc4ccccc4[nH]3)n3cc([C@@H](N)CC(C)C)nn3)CC2)n1.Cl	10.8
Cc1ccc(C(=O)NCC(=O)OC(C)C(=O)NCCC2=CCCCC2)cc1C (stereo not drawn)	5.58

SMILES	hERG current change (%, negative = inhibition) at 10uM [%]
O=C(Nc1ccc(OCc2ccccc2)cc1)c1cccc([N+](=O)[O-])c1	12
O=C(NCC(=O)N1CCCC(C(F)(F)F)C1)c1ccccc1Br (stereo not drawn)	6.21
O=C1CN(C(=O)c2cccc(Br)c2)c2ccccc2N1	-10.8
N#C/C(=C/c1cn(CC(=O)O)c2ccccc12)C(=O)Nc1ccccc1	15.4
CCOC(=O)c1cnc2cc(-c3ccc(C(C)(C)C)cc3)nn2c1N	7.95
CC(C)(C)NC(=O)Cn1cc(C(=O)c2ccccc2F)c2ccccc21	12.5
CC(C)CCn1c(=O)c(C(=O)N/N=C/c2cccc(F)c2)c(O)c2ccccc21	17.8
CC(C)CNc1nc(Oc2ccc(=O)[nH]n2)nc(N(C)C)n1	8.46
Cc1ccc(NC(=O)C2CC(=O)N(C(C)C)C2)cc1Cl (stereo not drawn)	33.2
COc1ccc(C)cc1NC(=O)COC(=O)c1ccc2ccccc2n1	3.24
CCN1C(=O)[C@H]2[C@@H](c3ccc(-c4cccc(Cl)c4)c(OC)c3)N[C@@](C)(C(=O)OC)[C@H]2C1=O.O=C(O)C(F)(F)F	-9.94
O=C(NN1CCOCC1)c1cc(-c2ccc(Br)s2)nc2ccccc12	-3.42
COc1cc(C(=O)OCC(=O)N2CCCC2)cc(OC)c1OC	9.55
Cc1ccc(N2C(=O)/C(=C/c3cccnc3)SC2=S)cc1	14.9
COc1ccc(-c2nn(-c3ccccc3)cc2C(=O)n2nnc3ccccc32)cc1	21.9
Cc1ccc(NCC(=O)N=Nc2c(O)[nH]c3ccc([N+](=O)[O-])cc23)cc1	-5.06
CCOc1cc(C2C(C(=O)c3ccc(C)cc3)=C(C(=O)OC)Nc3nnnn32)ccc1O (stereo not drawn)	11.9
CCOC(=O)C1=C(O)CSC1=Nc1cccc(Cl)c1	2.11
CC(=O)c1cccc(NC(=S)NC2CCCCC2)c1	-9.05
CC(NS(=O)(=O)c1ccc(Br)cc1)C(=O)Nc1nc2ccccc2[nH]1 (stereo not drawn)	-6.06
O=C(NCc1nnc(SCC(=O)N2CCCC2)o1)c1cccc(C(F)(F)F)c1	8.84
CCOC(=O)c1c(NC(=O)C(C)NCc2ccco2)sc2c1CCC(C)C2.O=C(O)C(=O)O (stereo not drawn)	-4.23

SMILES	hERG current change (%, negative = inhibition) at 10uM [%]
COc1ccc(/C=C2\SC(=S)N(CC(=O)N(C)C3CCS(=O)(=O)C3)C2=O)cc1 (stereo not drawn)	-0.695
CS(=O)(=O)N1CCN(c2ccc(NC(=S)NC(=O)c3cccs3)cc2)CC1	15.5
NC(=S)Nc1nccc(-c2cccs2)n1	-3.38
Br.O=C1c2ccccc2C(=O)N1c1cccc(-c2csc(Nc3ccc4c(c3)OCO4)n2)c1	-6.69
CCCCn1nc(C(=O)Nc2cccc(C(=O)NC3CC3)c2)c2ccccc2c1=O	-82.6
Cc1cccc(NC(=O)CSCC(=O)N(C)CC(=O)Nc2cccc(F)c2)c1	-3.01
COc1cccc(-c2nc3ccc(N4CCN(C)CC4)cc3[nH]2)c1	-20.5
CC(C)CNC(=O)C1CC(=O)OC12CCCCC2 (stereo not drawn)	10.7
O=C(Nc1nccs1)c1ccc(-c2ccc(Cl)cc2)o1	6.53
Cl.O=C(CCN1CCCC1)Nc1ccc(Br)cc1	-15.7
CC(C)Cn1c(N)c(C(=O)COC(=O)CCc2nc3ccccc3c(=O)[nH]2)c(=O)n(C)c1=O	-36
Cc1ccccc1CNC(=O)Nc1ccc(Cl)cc1	20.3
Cc1ccc(C(=O)NC(Cc2c[nH]c3ccccc23)C(=O)O)o1 (stereo not drawn)	10.1
COc1ccc(C2(c3ccc(OC)cc3)NC(=O)N(CC(=O)N3CCOCC3)C2=O)cc1	1.06
Cc1ccc(OCC(=O)NNC(=S)NC(=O)C2CC2)c(C)c1	23.2
CC(C)Cn1c(N)c(C(=O)COC(=O)c2c(F)cccc2F)c(=O)n(C)c1=O	-16.7
CCOc1cccc(CN2CCCC(C(=O)Nc3ccc(-c4ccn[nH]4)cc3)C2)c1O (stereo not drawn)	-29.5
CN(C)S(=O)(=O)n1cc(/C=C(\NC(=O)c2ccccc2)C(=O)N2CCCC2)c2ccccc21	-4.67
COc1ccc(S(=O)(=O)NCC2CCC(C(=O)NCc3cccnc3)CC2)cc1 (stereo not drawn)	1.47
CCN(CC)CCN(C(=O)c1ccc(CN2CCCCC2)o1)C(C(=O)NC1CCCCC1)c1ccc(F)cc1 (stereo not drawn)	-13.4
O=C(NNC(=S)Nc1ccc(Cl)cc1Cl)c1ccc(N2CCOCC2)c([N+](=O)[O-])c1	8.86
C=CCN(C(=O)CNC(=O)c1ccco1)C(C(=O)NC1CCCCC1)c1ccc(F)cc1 (stereo not drawn)	11.9

SMILES	hERG current change (%, negative = inhibition) at 10uM [%]
COc1ccc(OC)c(NC(=O)c2oc3ccccc3c2NC(=O)C2CC2)c1	10.4
Cn1cc(CN2CCCC(C(=O)c3cc(F)ccc3F)C2)c2ccccc21 (stereo not drawn)	-31.1
CCN(c1ccccc1C(=O)O)S(=O)(=O)c1cccc2nsnc12	24.3
OC(COc1ccc(C2C=CCC2)cc1)CN1CCCCC1 (stereo not drawn)	-42.6
NC(=O)C1CC(=O)N(c2ccc(OCc3ccc(F)cc3)cc2)C1 (stereo not drawn)	10.4
CCN(CC)CCCn1c2c(c(SCC(=O)Nc3nccs3)nc1=O)CCC2	-32
O=C(O)c1ccc(SCc2cnc(Cl)s2)cc1	-70
CCCNc1nc(-c2cc(C(=O)Nc3ccccc3)on2)cc(C(C)C)n1	11.9
O=C(C(=O)N1CCc2ccccc2C1)c1cn(CC(=O)N2CCCC2)c2ccccc12	-7.92
CCn1c(O)c(C=Nc2ccccc2)sc1=O	13.9
COc1ccc(Nc2ncnc3sc(-c4ccccc4)cc23)c(OC)c1	3.86
Cn1c(=O)c2ncn(CC(=O)NC3CCCCCC3)c2n(C)c1=O	9.86
CC(C)N(Cc1ccccc1)C(=O)CN1C(=O)NC2(CCCc3ccccc32)C1=O (stereo not drawn)	3.79
CCOC(=O)c1c(NC(=O)CSc2nc3ccc(C)cc3[nH]2)sc2c1CC(C)(C)NC2(C)C	-44.3
Cc1cc(O)cc(=O)n1Cc1ccco1	5.29
CCOC(=O)COc1ncn(-c2ccccc2)n1	2.4
O=C(COC(=O)c1cccc(F)c1)NC(=O)NC1CCCC1	5.55
CCCCn1c(/N=C/c2ccc(N(C)C)cc2)nc2ccccc21	-11.3
CC(C)(C)n1ncc2c(=O)n(Cc3ccc(Cl)cc3)cnc21	7.16
C[C@@H](NC(=O)c1nc[nH]c1C(=O)N1CCc2ccccc2C1)c1ccccc1	-2.24
COc1ccc(CN=C2NC(=O)CC(C(=O)Nc3ccc(F)cc3)S2)cc1 (stereo not drawn)	-29

From paper PMC4336329 (PLoS ONE, 2015)
